# This is one part of the list.
# B1: Pwp3 (Candida glabrata) (protein)
# chain: MGSSHHHHHHSSGLVPRGSHMASKNPVDFTTVCQFPDNFSKKPGFLATTARLGLWITGNSYKELLNYPGTFTLTTQQASTTTPNIQLRGTDLFTTIYGLTVYPLYLLVELQGYFVPTQSGMYTFSLTGSDDAAIIFIGNPSTFPCDAFKTWPQATANDITVTDSINPSRTLYMVKGVAYPLRIAYYNGLGNGVLNAAFTDPSGTKRTDWNGYIWQYDQCSTCTYK
# How the values were obtained:
# Experiment in all cases: glycan array binding signal (z-score within array); higher = stronger binding
# Conditions in all cases: glycan notation: IUPAC condensed, linker removed
# [1] = biological target: Neu5Ac(a2-3)Gal(b1-3)GalNAc
# In short: (§1)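 Glycan array data came from 3228 arrays in the Consortium for Functional Glycomics database, and only arrays with an available protein sequence were kept. Glycan names were put into IUPAC-condensed notation, and columns mapping to the same glycan were averaged. The binding signal is a within-array Z-score, averaged across arrays of one protein sequence run at different concentrations or buffers and across linkers. A negative Z-score can be read as non-binding.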
# [2] = biological target: Neu5Ac(a2-3)Gal(b1-3)GalNAc(b1-3)Gal(a1-4)Gal(b1-4)Glc
# In short: as §1
# [3] = biological target: Neu5Ac(a2-3)Gal(b1-3)GalNAc(b1-4)Gal(b1-4)Glc
# In short: as §1
# [4] = biological target: Neu5Ac(a2-3)Gal(b1-3)GalNAc(b1-4)[Neu5Ac(a2-3)]Gal(b1-4)Glc
# In short: as §1
# [5] = biological target: Neu5Ac(a2-3)Gal(b1-3)GalNAc(b1-4)[Neu5Ac(a2-8)Neu5Ac(a2-3)]Gal(b1-4)Glc
# In short: as §1
# [6] = biological target: Neu5Ac(a2-3)Gal(b1-3)GalNAc6S
# In short: as §1
# [7] = biological target: Neu5Ac(a2-3)Gal(b1-3)GlcNAc
# In short: as §1
# [8] = biological target: Neu5Ac(a2-3)Gal(b1-3)GlcNAc(b1-2)Man
# In short: as §1
# [9] = biological target: Neu5Ac(a2-3)Gal(b1-3)GlcNAc(b1-2)Man(a1-3)[GlcNAc(b1-4)][Neu5Ac(a2-3)Gal(b1-3)GlcNAc(b1-2)Man(a1-6)]Man(b1-4)GlcNAc(b1-4)GlcNAc
# In short: as §1
# [10] = biological target: Neu5Ac(a2-3)Gal(b1-3)GlcNAc(b1-2)Man(a1-3)[Neu5Ac(a2-3)Gal(b1-3)GlcNAc(b1-2)Man(a1-6)]Man(b1-4)GlcNAc(b1-4)GlcNAc
# In short: as §1
# [11] = biological target: Neu5Ac(a2-3)Gal(b1-3)GlcNAc(b1-2)[Neu5Ac(a2-3)Gal(b1-3)GlcNAc(b1-4)]Man(a1-6)[Neu5Ac(a2-3)Gal(b1-3)GlcNAc(b1-2)Man(a1-3)]Man(b1-4)GlcNAc(b1-4)GlcNAc
# In short: as §1
# [12] = biological target: Neu5Ac(a2-3)Gal(b1-3)GlcNAc(b1-3)Gal(b1-3)GlcNAc
# In short: as §1
# [13] = biological target: Neu5Ac(a2-3)Gal(b1-3)GlcNAc(b1-3)Gal(b1-4)GlcNAc
# In short: as §1
# [14] = biological target: Neu5Ac(a2-3)Gal(b1-3)GlcNAc(b1-3)GalNAc
# In short: as §1
# [15] = biological target: Neu5Ac(a2-3)Gal(b1-3)GlcNAc(b1-6)GalNAc
# In short: as §1
# [16] = biological target: Neu5Ac(a2-3)Gal(b1-3)GlcNAc6S
# In short: as §1
# [17] = biological target: Neu5Ac(a2-3)Gal(b1-3)[Fuc(a1-4)]GlcNAc
# In short: as §1
# [18] = biological target: Neu5Ac(a2-3)Gal(b1-3)[Fuc(a1-4)]GlcNAc(b1-3)Gal(b1-3)[Fuc(a1-4)]GlcNAc
# In short: as §1
# [19] = biological target: Neu5Ac(a2-3)Gal(b1-3)[Fuc(a1-4)]GlcNAc(b1-3)Gal(b1-4)[Fuc(a1-3)]GlcNAc
# In short: as §1
# [20] = biological target: Neu5Ac(a2-3)Gal(b1-3)[GlcNAc(b1-6)]GalNAc
# In short: as §1
# [21] = biological target: Neu5Ac(a2-3)Gal(b1-3)[Neu5Ac(a2-6)]GalNAc
# In short: as §1
# [22] = biological target: Neu5Ac(a2-3)Gal(b1-3)[Neu5Ac(a2-6)]GlcNAc(b1-3)[Fuc(a1-3)[Gal(b1-4)]GlcNAc(b1-6)]Gal(b1-4)Glc
# In short: as §1
# [23] = biological target: Neu5Ac(a2-3)Gal(b1-3)]Neu5Ac(a2-3)Gal(b1-4)]GlcNAc
# In short: as §1
# [24] = biological target: Neu5Ac(a2-3)Gal(b1-4)Glc
# In short: as §1
# [25] = biological target: Neu5Ac(a2-3)Gal(b1-4)GlcNAc
# In short: as §1
# [26] = biological target: Neu5Ac(a2-3)Gal(b1-4)GlcNAc(b1-2)Man
# In short: as §1
# [27] = biological target: Neu5Ac(a2-3)Gal(b1-4)GlcNAc(b1-2)Man(a1-3)[GlcNAc(b1-4)][Neu5Ac(a2-3)Gal(b1-4)GlcNAc(b1-2)Man(a1-6)]Man(b1-4)GlcNAc(b1-4)GlcNAc
# In short: as §1
# [28] = biological target: Neu5Ac(a2-3)Gal(b1-4)GlcNAc(b1-2)Man(a1-3)[Neu5Ac(a2-3)Gal(b1-4)GlcNAc(b1-2)Man(a1-6)]Man(b1-4)GlcNAc(b1-4)GlcNAc
# In short: as §1
# [29] = biological target: Neu5Ac(a2-3)Gal(b1-4)GlcNAc(b1-2)Man(a1-3)[Neu5Ac(a2-3)Gal(b1-4)GlcNAc(b1-2)Man(a1-6)]Man(b1-4)GlcNAc(b1-4)[Fuc(a1-6)]GlcNAc
# In short: as §1
# [30] = biological target: Neu5Ac(a2-3)Gal(b1-4)GlcNAc(b1-2)Man(a1-3)[Neu5Ac(a2-6)Gal(b1-4)GlcNAc(b1-2)Man(a1-6)]Man(b1-4)GlcNAc(b1-4)GlcNAc
# In short: as §1
# [31] = biological target: Neu5Ac(a2-3)Gal(b1-4)GlcNAc(b1-2)[Neu5Ac(a2-3)Gal(b1-4)GlcNAc(b1-4)]Man(a1-3)[GlcNAc(b1-4)][Neu5Ac(a2-3)Gal(b1-4)GlcNAc(b1-2)[Neu5Ac(a2-3)Gal(b1-4)GlcNAc(b1-6)]Man(a1-6)]Man(b1-4)GlcNAc(b1-4)GlcNAc
# In short: as §1
# [32] = biological target: Neu5Ac(a2-3)Gal(b1-4)GlcNAc(b1-2)[Neu5Ac(a2-3)Gal(b1-4)GlcNAc(b1-4)]Man(a1-3)[GlcNAc(b1-4)][Neu5Ac(a2-3)Gal(b1-4)GlcNAc(b1-4)Man(a1-6)]Man(b1-4)GlcNAc(b1-4)GlcNAc
# In short: as §1
# [33] = biological target: Neu5Ac(a2-3)Gal(b1-4)GlcNAc(b1-2)[Neu5Ac(a2-3)Gal(b1-4)GlcNAc(b1-6)]Man(a1-6)[Neu5Ac(a2-3)Gal(b1-4)GlcNAc(b1-2)Man(a1-3)][GlcNAc(b1-4)]Man(b1-4)GlcNAc(b1-4)GlcNAc
# In short: as §1
# [34] = biological target: Neu5Ac(a2-3)Gal(b1-4)GlcNAc(b1-3)Gal
# In short: as §1
# [35] = biological target: Neu5Ac(a2-3)Gal(b1-4)GlcNAc(b1-3)Gal(b1-3)GlcNAc
# In short: as §1
# [36] = biological target: Neu5Ac(a2-3)Gal(b1-4)GlcNAc(b1-3)Gal(b1-4)GlcNAc
# In short: as §1
# [37] = biological target: Neu5Ac(a2-3)Gal(b1-4)GlcNAc(b1-3)Gal(b1-4)GlcNAc(b1-2)Man(a1-3)[Neu5Ac(a2-3)Gal(b1-4)GlcNAc(b1-3)Gal(b1-4)GlcNAc(b1-2)Man(a1-6)]Man(b1-4)GlcNAc(b1-4)GlcNAc
# In short: as §1
# [38] = biological target: Neu5Ac(a2-3)Gal(b1-4)GlcNAc(b1-3)Gal(b1-4)GlcNAc(b1-3)Gal(b1-4)GlcNAc
# In short: as §1
# [39] = biological target: Neu5Ac(a2-3)Gal(b1-4)GlcNAc(b1-3)Gal(b1-4)GlcNAc(b1-3)Gal(b1-4)GlcNAc(b1-2)Man(a1-3)[Neu5Ac(a2-3)Gal(b1-4)GlcNAc(b1-3)Gal(b1-4)GlcNAc(b1-3)Gal(b1-4)GlcNAc(b1-2)Man(a1-6)]GalNAc
# In short: as §1
# [40] = biological target: Neu5Ac(a2-3)Gal(b1-4)GlcNAc(b1-3)Gal(b1-4)GlcNAc(b1-3)GalNAc
# In short: as §1
# [41] = biological target: Neu5Ac(a2-3)Gal(b1-4)GlcNAc(b1-3)Gal(b1-4)GlcNAc(b1-3)[Neu5Ac(a2-3)Gal(b1-4)GlcNAc(b1-3)Gal(b1-4)GlcNAc(b1-6)]GalNAc
# In short: as §1
# [42] = biological target: Neu5Ac(a2-3)Gal(b1-4)GlcNAc(b1-3)Gal(b1-4)GlcNAc(b1-6)[Gal(b1-3)]GalNAc
# In short: as §1
# [43] = biological target: Neu5Ac(a2-3)Gal(b1-4)GlcNAc(b1-3)Gal(b1-4)[Fuc(a1-3)]GlcNAc
# In short: as §1
# [44] = biological target: Neu5Ac(a2-3)Gal(b1-4)GlcNAc(b1-3)GalNAc
# In short: as §1
# [45] = biological target: Neu5Ac(a2-3)Gal(b1-4)GlcNAc(b1-3)[Neu5Ac(a2-3)Gal(b1-4)GlcNAc(b1-6)]GalNAc
# In short: as §1
binder,measurement,setting,value
B1,glycan array binding signal (z-score),[1],-0.302
same,glycan array binding signal (z-score),[2],-0.393
same,glycan array binding signal (z-score),[3],-0.358
same,glycan array binding signal (z-score),[4],-0.283
same,glycan array binding signal (z-score),[5],-0.441
same,glycan array binding signal (z-score),[6],-0.239
same,glycan array binding signal (z-score),[7],-0.088
same,glycan array binding signal (z-score),[8],-0.487
same,glycan array binding signal (z-score),[9],0.336
same,glycan array binding signal (z-score),[10],-0.624
same,glycan array binding signal (z-score),[11],-0.089
same,glycan array binding signal (z-score),[12],1.06
same,glycan array binding signal (z-score),[13],-0.248
same,glycan array binding signal (z-score),[14],0.015
same,glycan array binding signal (z-score),[15],3.45
same,glycan array binding signal (z-score),[16],-0.443
same,glycan array binding signal (z-score),[17],-0.331
same,glycan array binding signal (z-score),[18],-0.245
same,glycan array binding signal (z-score),[19],0.335
same,glycan array binding signal (z-score),[20],0.308
same,glycan array binding signal (z-score),[21],-0.17
same,glycan array binding signal (z-score),[22],-0.33
same,glycan array binding signal (z-score),[23],-0.06
same,glycan array binding signal (z-score),[24],0.697
same,glycan array binding signal (z-score),[25],-0.656
same,glycan array binding signal (z-score),[26],-0.311
same,glycan array binding signal (z-score),[27],0.319
same,glycan array binding signal (z-score),[28],-0.604
same,glycan array binding signal (z-score),[29],0.057
same,glycan array binding signal (z-score),[30],0.985
same,glycan array binding signal (z-score),[31],1.42
same,glycan array binding signal (z-score),[32],0.337
same,glycan array binding signal (z-score),[33],-1.54
same,glycan array binding signal (z-score),[34],0.133
same,glycan array binding signal (z-score),[35],-0.765
same,glycan array binding signal (z-score),[36],-0.31
same,glycan array binding signal (z-score),[37],-0.24
same,glycan array binding signal (z-score),[38],-0.379
same,glycan array binding signal (z-score),[39],-0.432
same,glycan array binding signal (z-score),[40],-0.424
same,glycan array binding signal (z-score),[41],0.044
same,glycan array binding signal (z-score),[42],2.29
same,glycan array binding signal (z-score),[43],0.188
same,glycan array binding signal (z-score),[44],-0.234
same,glycan array binding signal (z-score),[45],2.16

# Source: the supplement of paper PMC8728848
